According to PMC10201506 (Signal Transduction and Targeted Therapy, 2023):

Columns and labels:
[1] = target: trypsin (Homo sapiens, UniProt P07477); test: biochemical
[2] = target: Cathepsin B (Homo sapiens, UniProt P07858); test: Cathepsin B enzymatic assay; type: biochemical
[3] = target: Cathepsin L (Homo sapiens, UniProt P07711); test: Cathepsin L enzymatic assay; type: biochemical
[4] = target: T1, Cathepsin K (Homo sapiens, UniProt P43235); test: Cathepsin K enzymatic assay; type: biochemical
T1 sequence (P43235 115-329): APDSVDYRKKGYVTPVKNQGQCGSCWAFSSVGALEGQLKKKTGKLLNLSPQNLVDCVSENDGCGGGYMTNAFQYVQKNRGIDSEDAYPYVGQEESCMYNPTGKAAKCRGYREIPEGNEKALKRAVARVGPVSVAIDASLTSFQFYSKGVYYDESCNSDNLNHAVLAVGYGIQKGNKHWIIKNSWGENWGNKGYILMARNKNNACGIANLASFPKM

[5] = target: T2, Calpain I (Homo sapiens, UniProt P07384); test: Calpain I enzymatic assay; type: biochemical
T2 construct: purchased abcam ab91019
T2 sequence (P07384 1-714): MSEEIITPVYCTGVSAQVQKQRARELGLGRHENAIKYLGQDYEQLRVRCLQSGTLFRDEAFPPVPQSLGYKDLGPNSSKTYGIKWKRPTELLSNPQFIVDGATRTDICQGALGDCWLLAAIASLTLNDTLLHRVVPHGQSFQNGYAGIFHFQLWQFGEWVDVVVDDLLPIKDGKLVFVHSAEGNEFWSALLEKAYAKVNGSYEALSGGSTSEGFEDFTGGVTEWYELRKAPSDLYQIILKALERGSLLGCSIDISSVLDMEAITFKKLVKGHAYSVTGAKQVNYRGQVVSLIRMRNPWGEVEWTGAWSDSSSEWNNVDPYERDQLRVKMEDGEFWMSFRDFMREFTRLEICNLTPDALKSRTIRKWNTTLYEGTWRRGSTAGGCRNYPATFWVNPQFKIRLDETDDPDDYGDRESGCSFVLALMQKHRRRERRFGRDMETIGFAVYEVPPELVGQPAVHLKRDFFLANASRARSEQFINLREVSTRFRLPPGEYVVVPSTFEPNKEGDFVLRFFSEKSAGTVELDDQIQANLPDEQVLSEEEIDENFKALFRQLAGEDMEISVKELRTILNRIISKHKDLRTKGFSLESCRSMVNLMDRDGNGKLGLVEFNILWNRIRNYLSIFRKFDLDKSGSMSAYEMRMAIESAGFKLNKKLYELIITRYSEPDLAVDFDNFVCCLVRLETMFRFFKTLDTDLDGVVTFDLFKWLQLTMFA
T2 sequence (P04632 1-268 partner): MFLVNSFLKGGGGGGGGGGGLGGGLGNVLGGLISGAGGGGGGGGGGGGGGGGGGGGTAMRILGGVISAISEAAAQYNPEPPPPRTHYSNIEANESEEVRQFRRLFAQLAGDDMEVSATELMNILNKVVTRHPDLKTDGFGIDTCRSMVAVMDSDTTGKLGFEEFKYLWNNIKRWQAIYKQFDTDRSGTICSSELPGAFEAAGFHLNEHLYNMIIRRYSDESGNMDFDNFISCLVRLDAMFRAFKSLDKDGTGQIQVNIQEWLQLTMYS

[6] = target: Cathepsin D (Homo sapiens, UniProt P07339); test: Cathepsin D enzymatic assay; type: biochemical
[7] = target: T3, caspase-3 (Homo sapiens, UniProt P42574); test: Caspase-3 activity assay; type: biochemical
T3 sequence (P42574 29-277): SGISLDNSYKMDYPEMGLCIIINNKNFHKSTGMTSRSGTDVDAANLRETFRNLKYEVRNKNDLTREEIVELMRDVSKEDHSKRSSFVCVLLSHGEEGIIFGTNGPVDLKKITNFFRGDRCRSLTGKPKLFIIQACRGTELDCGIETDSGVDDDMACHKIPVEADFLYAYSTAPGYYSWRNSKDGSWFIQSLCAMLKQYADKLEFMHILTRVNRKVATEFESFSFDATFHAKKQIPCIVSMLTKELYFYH

[8] = target: T4, Thrombin (Homo sapiens, UniProt P00734); test: Thrombin enzymatic assay; type: biochemical
T4 construct: the activity of Thrombin was monitored using the substrate Benzoyl-FVR-AMC

[9] = target: DPP-4 (Homo sapiens, UniProt P27487); test: biochemical; type: biochemical
[10] = target: T5, SARS-CoV-2 3CL^pro (Severe acute respiratory syndrome coronavirus 2, UniProt P0DTC1); test: biochemical; conditions: IC50, time-dependent inhibition
[11] = target: SARS-CoV-1 3CL^pro (Severe acute respiratory syndrome coronavirus, UniProt P0C6U8); test: biochemical
[12] = target: SARS-CoV-2 PL^pro (Severe acute respiratory syndrome coronavirus 2, UniProt P0DTC1); test: biochemical; conditions: text and positive control footnote; read-out: IC50 SARS-CoV-2 PLpro
[13] = target: SARS-CoV-2 RdRp (Severe acute respiratory syndrome coronavirus 2, UniProt P0DTD1); test: biochemical
[14] = tested on: SARS-CoV-2 original strain; test: Cell-based antiviral activity assay, original strain, Vero E6; conditions: Severe acute respiratory syndrome coronavirus 2, Vero C1008; Vero E6 cells, viral RNA by qRT-PCR 24 h post infection, n = 3; read-out: EC50 SARS-CoV-2 WT (original strain) replication
[15] = tested on: HCoV-OC43; test: In vitro antiviral activity against HCoV-OC43; type: cell-based; conditions: in words
[16] = target: T5, SARS-CoV-2 3CL^pro; test: Enzyme kinetic studies (Lineweaver-Burk, global fit); type: biochemical
[17] = target: T5, SARS-CoV-2 3CL^pro; test: Bio-layer interferometry (BLI) binding
[18] = tested on: Vero E6 cells; conditions: African green monkey
[19] = in vivo; conditions: mouse
[20] = target: human proteasome (Homo sapiens, UniProt P20618+P28074); test: Proteasome activity assay
[21] = read-out: IC50 Calpain 1/cysteine
[22] = read-out: IC50 Cathepsin D/aspartyl
[23] = read-out: IC50 Caspase3/ cysteine

Chain of UniProt P27487 (P27487 whole entry): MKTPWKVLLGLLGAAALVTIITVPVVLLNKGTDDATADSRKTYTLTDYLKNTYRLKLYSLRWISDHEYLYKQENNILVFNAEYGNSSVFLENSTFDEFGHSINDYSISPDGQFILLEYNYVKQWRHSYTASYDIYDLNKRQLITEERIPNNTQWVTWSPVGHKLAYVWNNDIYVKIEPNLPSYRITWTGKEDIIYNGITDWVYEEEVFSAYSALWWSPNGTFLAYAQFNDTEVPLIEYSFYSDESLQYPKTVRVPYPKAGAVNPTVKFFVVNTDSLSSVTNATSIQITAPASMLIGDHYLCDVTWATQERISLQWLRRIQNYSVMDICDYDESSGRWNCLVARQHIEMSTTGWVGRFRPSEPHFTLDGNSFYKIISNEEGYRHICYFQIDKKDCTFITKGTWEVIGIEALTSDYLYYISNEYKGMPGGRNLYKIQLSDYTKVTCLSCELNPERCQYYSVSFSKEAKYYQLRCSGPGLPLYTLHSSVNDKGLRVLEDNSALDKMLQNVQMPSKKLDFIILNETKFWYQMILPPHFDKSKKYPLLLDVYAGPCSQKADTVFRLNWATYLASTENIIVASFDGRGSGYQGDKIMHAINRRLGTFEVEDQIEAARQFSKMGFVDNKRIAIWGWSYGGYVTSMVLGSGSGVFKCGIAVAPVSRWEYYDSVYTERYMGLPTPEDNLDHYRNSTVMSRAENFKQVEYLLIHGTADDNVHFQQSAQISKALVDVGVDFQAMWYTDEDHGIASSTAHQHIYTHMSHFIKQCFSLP

Structure (SMILES): CN(C)C(=O)COC(=O)Cc1ccc(OC(=O)c2ccc(NC(=N)N)cc2)cc1 [Camostat mesylate, reference compound]
- IC50 [1]: 0.101 ± 0.0264 µM

Structure (SMILES): CC(C)C[C@H](NC(=O)[C@H]1O[C@@H]1C(=O)O)C(=O)NCCCCN=C(N)N [Compound E-64]
- IC50 ([2]; positive control, read-out: IC50 Cathepsin B): 0.0134 ± 0.0014 µM
- IC50 ([3]; positive control, read-out: IC50 Cathepsin L): 0.065 ± 0.0089 µM
- IC50 ([4]; positive control, read-out: IC50 Cathepsin K): 0.0136 ± 0.005 µM

Structure (SMILES): CC(C)C[C@H](NC(=O)OCc1ccccc1)C(=O)N[C@@H](CC1CCNC1=O)C(O)S(=O)(=O)O (some centres unmarked) [GC-376]
- IC50 [5, 21]: 0.02 µM
- IC50 ([2]; read-out: IC50 Cathepsin B/cysteine): 0.09 µM
- IC50 ([3]; read-out: IC50 Cathepsin L/cysteine): 0.002 µM
- IC50 [6, 22]: > 100 µM
- IC50 [7, 23]: > 100 µM
- IC50 ([8]; read-out: IC50 Thrombin/serine): > 100 µM
- IC50 ([9]; read-out: IC50 DPP-4/cysteine): > 100 µM

Structure (SMILES): O=C(c1cc(=O)[nH]c2ccccc12)N1CCN(c2ccc(Cl)c(Cl)c2)CC1CN1CCOCC1 (centres unmarked) [JZD-07, 4-(4-(3,4-Dichlorophenyl)-2-(morpholinomethyl)piperazine-1-carbonyl)quinolin-2(1H)-one]
- IC50 [10]: 0.12 ± 0.01 µM
- IC50 [11]: 0.11 µM
- IC50 [12]: > 100 µM
- IC50 ([13]; text: viral life cycle related targets, read-out: IC50 SARS-CoV-2 RdRp): > 100 µM
- IC50 [5]: > 100 µM
- IC50 [2]: > 100 µM
- IC50 [3]: > 100 µM
- IC50 [4]: > 100 µM
- IC50 [6]: > 100 µM
- IC50 [7]: > 100 µM
- IC50 [8]: > 100 µM
- IC50 [9]: > 100 µM
- EC50 [14]: 0.82 µM
- antivirus activity against HCoV-OC43 [15]: good antivirus activities
- Ki [16]: 0.117 µM
- mode of inhibition ([16]; Lineweaver-Burk plot): competitive inhibitor
- koff [17]: 0.028 S^-1
- kon [17]: 2.36 × 10^5 M^-1S^-1
- CC50 [18]: > 300 µM
- AUC(0-inf) ([19]; ip, 10 mg/kg): 2.28 µg·h/mL
- Cmax ([19]; ip, 10 mg/kg): 1.61 µg/mL
- bioavailability ([19]; po, 20 mg/kg): 28.1%
- IC50 [1]: > 100 µM
- IC50 [20]: > 100 µM

Structure (SMILES): CC(C)(C)[C@H](NC(=O)C(F)(F)F)C(=O)N1C[C@H]2[C@@H]([C@H]1C(=O)N[C@H](C#N)C[C@@H]1CCNC1=O)C2(C)C [PF-07321332]
- IC50 [5, 21]: > 100 µM
- IC50 [6, 22]: > 100 µM
- IC50 [7, 23]: > 100 µM
- IC50 ([8]; read-out: IC50 Thrombin/serine): > 100 µM
- IC50 ([9]; read-out: IC50 DPP-4/cysteine): > 100 µM

Structure (SMILES): Cc1ccc(C(=O)Nc2ccc(S(=O)(=O)O)c3cc(S(=O)(=O)O)cc(S(=O)(=O)O)c23)cc1NC(=O)c1cccc(NC(=O)Nc2cccc(C(=O)Nc3cc(C(=O)Nc4ccc(S(=O)(=O)O)c5cc(S(=O)(=O)O)cc(S(=O)(=O)O)c45)ccc3C)c2)c1 [suramin, reference compound]
- IC50 [13]: 0.3645 ± 0.003 µM

Where a name gives a salt, the structure may show the parent alone. Read-outs that look alike come from different tables or passages of the source.
